Reference: article PMC4242493
Some of the results follow. The list includes weakly bound sequences.

The sequences below were run against MaxL homodimer (UniProt P61244) (assay: universal protein-binding microarray (PBM)). Conditions: PBS-based mixture, 10 nM His-tagged protein dimer, 2% milk, 200 ng/uL BSA, 50 ng/uL salmon testes DNA, 0.02% TX-100; detection with Alexa 488 anti-His …; high values mean tight binding; most listed sequences are background and not binding sites; double strand, one strand shown.
Sequence of UniProt P61244 (P61244 whole entry): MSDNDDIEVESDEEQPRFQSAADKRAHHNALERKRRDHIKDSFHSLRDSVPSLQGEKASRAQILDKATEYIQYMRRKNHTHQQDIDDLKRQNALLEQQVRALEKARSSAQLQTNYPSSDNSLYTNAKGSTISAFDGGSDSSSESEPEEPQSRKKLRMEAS
GCTAACAA gave a binding signal (normalized occupancy) of 0.0745. Work on TGTCGTAA yielded a binding signal (normalized occupancy) of 0.0729. In the case of CCTAAAGC, the binding signal (normalized occupancy) is reported as 0.0733. Work on GGTGTCCA yielded a binding signal (normalized occupancy) of 0.0769. For TCTGAGAA, the binding signal (normalized occupancy) was 0.0726. For TAACACTA, the binding signal (normalized occupancy) was 0.0772. Sequence CGTGTACC has a binding signal (normalized occupancy) of 0.0895. ACGACGAA was tested, and the binding signal (normalized occupancy) was 0.0694. GTCATACA showed a binding signal (normalized occupancy) of 0.0802. In the case of CAGAGTCG, the binding signal (normalized occupancy) is reported as 0.0728. CTTACGTA showed a binding signal (normalized occupancy) of 0.0743. For ATCAATCC, the binding signal (normalized occupancy) was 0.0771. Sequence ATCTACCC has a binding signal (normalized occupancy) of 0.0783. AAGGGAAA gave a binding signal (normalized occupancy) of 0.074. GCACGAGA was tested, and the binding signal (normalized occupancy) was 0.098. In the case of CTCTGTTA, the binding signal (normalized occupancy) is reported as 0.0725. GGACAGGA gave a binding signal (normalized occupancy) of 0.0735. In the case of GATTGTCA, the binding signal (normalized occupancy) is reported as 0.0753. AGACCTGA gave a binding signal (normalized occupancy) of 0.0718. With CGGGTCCA the binding signal (normalized occupancy) was 0.0703. With TTAATTAA the binding signal (normalized occupancy) was 0.0705. ATGCGGAA showed a binding signal (normalized occupancy) of 0.0817. In the case of AGCTATGA, the binding signal (normalized occupancy) is reported as 0.0732. In the case of ACAGTATA, the binding signal (normalized occupancy) is reported as 0.0771. Sequence ACCTGAAG has a binding signal (normalized occupancy) of 0.0738. CCCAATGC showed a binding signal (normalized occupancy) of 0.081. GTCGGAAC showed a binding signal (normalized occupancy) of 0.0707. For ACTTATAC, the binding signal (normalized occupancy) was 0.0729. AACGCGTT showed a binding signal (normalized occupancy) of 0.0813. Sequence ATGTATTG has a binding signal (normalized occupancy) of 0.0801. In the case of ACGTTTAT, the binding signal (normalized occupancy) is reported as 0.0828. For CGTCAAAG, the binding signal (normalized occupancy) was 0.0685. AACCGTGG gave a binding signal (normalized occupancy) of 0.073. Sequence CCCAGATC has a binding signal (normalized occupancy) of 0.0708. For GATTCAGA, the binding signal (normalized occupancy) was 0.0697. TACGTTGA showed a binding signal (normalized occupancy) of 0.082. For CCTAAAAG, the binding signal (normalized occupancy) was 0.0737. With AATCCCAG the binding signal (normalized occupancy) was 0.0794. With CATTAACG the binding signal (normalized occupancy) was 0.0806. AACCGACC showed a binding signal (normalized occupancy) of 0.0707. With CAACAGAC the binding signal (normalized occupancy) was 0.0756. In the case of GATCGAAC, the binding signal (normalized occupancy) is reported as 0.0706. AACTAGAT was tested, and the binding signal (normalized occupancy) was 0.0761. For TCTCGCCA, the binding signal (normalized occupancy) was 0.0759. For AATAGGTA, the binding signal (normalized occupancy) was 0.0771. ACGGATCA was tested, and the binding signal (normalized occupancy) was 0.0738. CCTGTCAC was tested, and the binding signal (normalized occupancy) was 0.0799. For CCTGTTAC, the binding signal (normalized occupancy) was 0.0862. With CAACATTC the binding signal (normalized occupancy) was 0.0766. With GGTCTCGA the binding signal (normalized occupancy) was 0.0716. Sequence AAATTTCC has a binding signal (normalized occupancy) of 0.0687. Work on ACACCACT yielded a binding signal (normalized occupancy) of 0.077. Work on CCAACCGA yielded a binding signal (normalized occupancy) of 0.0733. CTAGTTCA was tested, and the binding signal (normalized occupancy) was 0.0739. GATGTGTA gave a binding signal (normalized occupancy) of 0.0848. For AGAAGTCT, the binding signal (normalized occupancy) was 0.075. CCCTCACG was tested, and the binding signal (normalized occupancy) was 0.0805. AGACATGC gave a binding signal (normalized occupancy) of 0.102. CAGAACCC was tested, and the binding signal (normalized occupancy) was 0.0737. Work on TCCGATCA yielded a binding signal (normalized occupancy) of 0.074. CAGATTCC was tested, and the binding signal (normalized occupancy) was 0.0745. In the case of TATCCTGA, the binding signal (normalized occupancy) is reported as 0.0793. GCTAAAAC was tested, and the binding signal (normalized occupancy) was 0.0745. GCCACGTA gave a binding signal (normalized occupancy) of 0.0823. In the case of GTCTCCAC, the binding signal (normalized occupancy) is reported as 0.0736. For AACATTCC, the binding signal (normalized occupancy) was 0.0768. In the case of CGAATCGC, the binding signal (normalized occupancy) is reported as 0.0706. In the case of CTTGTAAA, the binding signal (normalized occupancy) is reported as 0.0729. For AGACTTCC, the binding signal (normalized occupancy) was 0.0744. With AAAGATTA the binding signal (normalized occupancy) was 0.0727. CACCGTAC was tested, and the binding signal (normalized occupancy) was 0.0762. With GAAAAGAC the binding signal (normalized occupancy) was 0.0747. CAAAACGA gave a binding signal (normalized occupancy) of 0.0687. AACAGACC was tested, and the binding signal (normalized occupancy) was 0.0741. Sequence ACAACTGG has a binding signal (normalized occupancy) of 0.075. AGACCATC was tested, and the binding signal (normalized occupancy) was 0.0766. Sequence ACATTGAA has a binding signal (normalized occupancy) of 0.0824. CACTATTC gave a binding signal (normalized occupancy) of 0.0749. Work on GTAGCTGA yielded a binding signal (normalized occupancy) of 0.0708. Work on ATTAGTAA yielded a binding signal (normalized occupancy) of 0.0784. TCAGCAAA was tested, and the binding signal (normalized occupancy) was 0.0672. AATGGGGA showed a binding signal (normalized occupancy) of 0.0809. ACAGAGAT showed a binding signal (normalized occupancy) of 0.0767. Work on CATCTAGC yielded a binding signal (normalized occupancy) of 0.0802. With GGACGATA the binding signal (normalized occupancy) was 0.0773. ACCTAAAG gave a binding signal (normalized occupancy) of 0.0652. AACTTGGA gave a binding signal (normalized occupancy) of 0.0689. For CAGTAAAC, the binding signal (normalized occupancy) was 0.0746. In the case of CGGTTCAG, the binding signal (normalized occupancy) is reported as 0.0693. For TAGCGGAA, the binding signal (normalized occupancy) was 0.0678. For AGGTTCTC, the binding signal (normalized occupancy) was 0.0859. With AAGTGAGA the binding signal (normalized occupancy) was 0.0726. GACCACGC was tested, and the binding signal (normalized occupancy) was 0.129. Work on AAGAAAAA yielded a binding signal (normalized occupancy) of 0.0711. ATGCGTAC gave a binding signal (normalized occupancy) of 0.0922. Sequence GGCGCAAA has a binding signal (normalized occupancy) of 0.0678. AGCGGAAT gave a binding signal (normalized occupancy) of 0.0731. Work on ATGCCTCG yielded a binding signal (normalized occupancy) of 0.0854. ACAATTCG showed a binding signal (normalized occupancy) of 0.0769. ACAATGAA gave a binding signal (normalized occupancy) of 0.0787. Work on CTTTCCGC yielded a binding signal (normalized occupancy) of 0.0732. With AGCGTGTG the binding signal (normalized occupancy) was 0.0954. AATAAACT showed a binding signal (normalized occupancy) of 0.07. Sequence TCGGAACA has a binding signal (normalized occupancy) of 0.0723. ACGCGCCC gave a binding signal (normalized occupancy) of 0.0753. In the case of ACTTTCCT, the binding signal (normalized occupancy) is reported as 0.0742. GGGACCCC showed a binding signal (normalized occupancy) of 0.0741. CTCGTCAA gave a binding signal (normalized occupancy) of 0.0721. Work on CCGACCGA yielded a binding signal (normalized occupancy) of 0.07. With ATCCCACC the binding signal (normalized occupancy) was 0.0833.
